Source: the supplement of paper PMC3334620
Over roughly 33,000 sequences, “E-score (-0.5 to 0.5)” has its median near -0.035; the highest 2% begin near 0.34. This is one part of the list.

These sequences were tested against T1, Mot3 (UniProt P54785) (assay: PBM E-score (8-mer binding enrichment) (E-score (-0.5 to 0.5)); higher = stronger / more preferred TF binding; most listed sequences are background and not binding sites). Details: protein concentration: 200 nM; construct: GST-full length.
T1 sequence: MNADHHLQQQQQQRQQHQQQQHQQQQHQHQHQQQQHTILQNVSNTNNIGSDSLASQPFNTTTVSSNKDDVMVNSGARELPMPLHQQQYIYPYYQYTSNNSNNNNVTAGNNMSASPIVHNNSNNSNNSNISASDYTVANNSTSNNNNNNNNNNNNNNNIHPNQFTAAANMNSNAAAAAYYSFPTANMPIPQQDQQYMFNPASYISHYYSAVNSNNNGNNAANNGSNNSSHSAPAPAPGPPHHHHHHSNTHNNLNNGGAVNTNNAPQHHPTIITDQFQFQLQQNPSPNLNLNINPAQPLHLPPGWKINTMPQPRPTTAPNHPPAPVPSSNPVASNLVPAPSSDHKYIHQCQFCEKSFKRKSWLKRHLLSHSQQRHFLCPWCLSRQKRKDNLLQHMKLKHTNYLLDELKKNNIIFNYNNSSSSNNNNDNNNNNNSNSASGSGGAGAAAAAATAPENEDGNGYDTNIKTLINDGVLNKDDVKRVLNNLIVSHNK
In short: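 GST-tagged yeast TFs (full-length or DNA-binding domain) were made by PURExpress in vitro transcription/translation and applied at about 100-200 nM to universal all-10-mer Agilent arrays. The arrays were made double-stranded by primer extension, on fresh or once-stripped slides. Bound protein was detected with fluorescent anti-GST, and scans were normalised with masliner. Each ungapped eight-base word, pooled with its reverse complement, received an E-score (modified Wilcoxon-Mann-Whitney statistic) from the Universal PBM Analysis Suite.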

Row | Sequence | PBM E-score
1 | GATTGCGC | -0.0751
2 | AGCGGAGA | -0.201
3 | CCCTAAGG | -0.0438
4 | AGTGTAAG | 0.00213
5 | ACAAGGGC | 0.0718
6 | ATGGAGAG | -0.0951
7 | CGAGGCCA | -0.12
8 | CATAGCTA | -0.137
9 | GTCGGATA | -0.132
10 | ACTATATC | 0.149
11 | CCCGTGAC | -0.083
12 | AATCTCCT | 0.0723
13 | GGGGACCC | -0.217
14 | AGGCGACG | 0.111
15 | CAACGTTC | 0.122
16 | ATTTCACC | 0.138
17 | TACCCCGA | -0.0828
18 | GTACAAAA | 0.272
19 | ACTCAAGG | -0.0601
20 | ATCGTGTG | 0.204
21 | CTGTTGAA | 0.0523
22 | AGGTTGGA | -0.173

Row | Sequence | PBM E-score
23 | CTTTCCTA | 0.399
24 | ACAGGCCA | 0.296
25 | ACTTTAAC | 0.185
26 | ACTGGTTA | 0.127
27 | ATTTTGGC | -0.0528
28 | AGAAGTAG | -0.102
29 | CAGTTGTA | 0.00216
30 | CGTCAATC | 0.0322
31 | ATATCCCA | -0.0768
32 | ACGAACGC | 0.0891
33 | ACGTTAGG | 0.137
34 | TAAAGAAA | 0.259
35 | AGCTACGC | -0.00018
36 | CTTAGCTA | -0.0227
37 | ACGCCTCG | -0.0206
38 | CTTCTCTC | -0.0299
39 | GGTAGTCA | -0.163
40 | ATCACCAG | -0.159
41 | ACTGAAAA | -0.0071
42 | CGCGGATA | 0.0845
43 | ACAAGGGT | 0.216
44 | ACATGGGT | 0.242

Row | Sequence | PBM E-score
45 | CTGACCGC | -0.15
46 | AAGGATAG | -0.208
47 | TCATAGGA | 0.0261
48 | GGAACTCA | -0.0291
49 | TCATGGAA | -0.0193
50 | AGTAGCAC | -0.124
51 | ACGGATCT | -0.14
52 | GTATTCGA | 0.0788
53 | GTGGGCGA | -0.197
54 | ACAGACCA | -0.0345
55 | ACTAGTAT | 0.133
56 | CAGAGGAC | -0.229
57 | ATAGAACC | -0.168
58 | CCGGAGAC | -0.188
59 | GCGTTGTA | 0.235
60 | CTAGCCAC | -0.0523
61 | CCATGAAA | 0.0774
62 | GCGAAGCA | 0.00953
63 | AGTAGCCC | -0.277
64 | CGCAGTTC | -0.0813
65 | CCACTAAG | 0.0148
66 | AGTGGCAT | -0.249

Row | Sequence | PBM E-score
67 | CTTCGGGC | -0.157
68 | GGTACTAC | 0.162
69 | AGGACTGC | -0.361
70 | AGACTCAG | -0.272
71 | CACCGATG | 0.0123
72 | CCCGATTA | -0.0246
73 | TATTGGGA | -0.00069
74 | GGAGGACC | -0.34
75 | AGATTTTA | 0.108
76 | CTGCACAG | 0.0307
77 | CACACCAG | 0.133
78 | AATCCCCA | 0.0522
79 | ACGACGCA | 0.149
80 | AGTTTTGC | 0.156
81 | CGGACTAA | 0.153
82 | GGGAAGAC | -0.306
83 | TAGCTAAA | -0.134
84 | AGGGATGG | -0.13
85 | ACCTTTGA | 0.0366
86 | CAGCCGCA | -0.272
